PMC4336329 (PLoS ONE, 2015)
The campaign covered roughly 310,000 compounds. About 2,200 (0.71%) showed an effect of 50% or more. The effect is printed as a negative number. Some of the results follow.

molecular target: human ether-à-go-go-related gene (hERG) potassium channel (human, UniProt Q12809); assay: primary screen, population patch clamp on CHO cells stably expressing hERG
Sequence (Q12809 whole entry, looked up): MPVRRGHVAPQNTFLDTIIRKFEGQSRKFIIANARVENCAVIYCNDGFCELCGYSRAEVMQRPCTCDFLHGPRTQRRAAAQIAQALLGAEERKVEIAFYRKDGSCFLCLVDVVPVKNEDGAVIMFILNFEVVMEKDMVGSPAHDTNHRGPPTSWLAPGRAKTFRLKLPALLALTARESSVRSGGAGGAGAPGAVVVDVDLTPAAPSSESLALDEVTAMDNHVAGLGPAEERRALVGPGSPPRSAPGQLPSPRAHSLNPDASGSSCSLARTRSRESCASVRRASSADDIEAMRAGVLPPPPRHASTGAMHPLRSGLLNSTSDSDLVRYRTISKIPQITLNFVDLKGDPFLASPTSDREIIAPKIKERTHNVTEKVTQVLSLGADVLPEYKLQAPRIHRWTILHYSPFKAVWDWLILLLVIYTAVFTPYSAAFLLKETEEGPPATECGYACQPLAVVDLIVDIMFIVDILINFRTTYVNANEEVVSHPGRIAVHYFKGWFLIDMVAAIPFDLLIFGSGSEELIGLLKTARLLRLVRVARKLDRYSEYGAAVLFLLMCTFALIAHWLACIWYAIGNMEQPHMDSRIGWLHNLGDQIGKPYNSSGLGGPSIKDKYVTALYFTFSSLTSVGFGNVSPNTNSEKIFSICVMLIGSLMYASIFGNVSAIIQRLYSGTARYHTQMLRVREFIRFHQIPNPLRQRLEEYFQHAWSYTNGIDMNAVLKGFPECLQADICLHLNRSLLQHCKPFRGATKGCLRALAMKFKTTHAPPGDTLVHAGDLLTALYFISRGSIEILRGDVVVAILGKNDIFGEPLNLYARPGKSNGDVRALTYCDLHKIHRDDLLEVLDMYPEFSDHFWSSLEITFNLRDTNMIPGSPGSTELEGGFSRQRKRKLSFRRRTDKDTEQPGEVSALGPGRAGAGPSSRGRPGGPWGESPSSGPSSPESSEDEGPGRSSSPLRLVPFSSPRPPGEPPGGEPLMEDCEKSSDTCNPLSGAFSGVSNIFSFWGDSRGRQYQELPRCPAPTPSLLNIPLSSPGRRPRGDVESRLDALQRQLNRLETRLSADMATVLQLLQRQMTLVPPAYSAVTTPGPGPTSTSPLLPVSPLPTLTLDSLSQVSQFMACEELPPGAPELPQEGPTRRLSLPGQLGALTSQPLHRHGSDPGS

Compound	hERG current change (%, negative = inhibition) at 1uM
Nc1cc(OC(=O)c2ccc(F)cc2)nn1S(=O)(=O)c1ccc(F)cc1	14.6%
Cc1ccc2cccc(OCC(=O)N(C)CC(=O)Nc3ccc(F)cc3)c2n1	14.9%
Cc1cc(C)cc(OCC(=O)OCC(=O)NCc2ccco2)c1	11.1%
COc1cc(/C=N/NC(=O)c2ccccn2)cc2c1OCO2	-2.79%
O=C(O)C1=C(OCc2ccccc2)C(=O)NCC1	8.12%
O=C(Cn1cnc2c(cnn2-c2ccccc2)c1=O)OCc1ccccc1	14%
CN(C)c1ccccc1C(=O)N1CCC(n2nccc2NC(=O)C2CC2)CC1	21%
COc1ccccc1CNC(=O)COC(=O)C1CCN(S(=O)(=O)c2ccccc2)CC1	12.6%
Cc1ccc(C)c(NC(=O)CN(C)C(=O)c2ccc3c(=O)n4c(nc3c2)CCC4)c1	-4.72%
COCCN(C(=O)COC(=O)c1cc(C)oc1C)c1c(N)n(Cc2ccccc2)c(=O)[nH]c1=O	7.59%
Cc1onc(-c2ccccc2)c1C(=O)N/N=C/c1cc2c(cc1Cl)OCO2	9.88%
COc1cc(C#N)c(N=C(SCC#N)N2CCOCC2)cc1OC	10.7%
Clc1ccc(-c2csc(N3CCCCCC3)n2)cc1	15.6%
COC(=O)N1C(=O)[C@@](Cc2ccccc2)(c2ccccc2)N1C(=O)OC	14.6%
COc1cc(OC)c2c(C)cc(=O)oc2c1C(CCN1CCOCC1)c1ccc(N(C)C)cc1 (stereo not shown)	9.06%
COc1ccc(/C(O)=C2/C(=O)C(=O)N(Cc3cccnc3)C2c2ccccn2)cc1 (stereo not shown)	9.49%
CSCCC(NC(=O)COc1ccccc1)C(=O)N1CCN(C(C)=O)CC1 (stereo not shown)	4.74%
CC(C(=O)NCC1CCCCC1)N(C)CC(=O)Nc1ccc(N2CCOCC2)cc1 (stereo not shown)	13.7%
O=C(OCc1nnc(-c2ccc(Cl)cc2)o1)c1ccc(O)cc1	17%
CCOC(=O)COc1ccc2c(c1)c(C(C)=O)c(C)n2Cc1ccccc1	0.0721%
Cc1ccsc1CNn1cnnc1SCc1ccccc1F	8.06%
CN(C)CC#CCC(O)(c1ccccc1)C1CCCC1.Cl (stereo not shown)	-2.68%

Compound	hERG current change (%, negative = inhibition) at 1uM
COc1ccc(Cc2nnc(NC(=O)c3cc(OC)c(OC)c(OC)c3)s2)cc1OC	3.54%
COc1ccc(-c2nc(NC(=O)C3CCN(c4nc5ccccc5o4)CC3)sc2C)cc1	10%
Cc1ccc(NC(=O)Cn2nc(C)c(S(=O)(=O)N(C)C)c2C)cc1	9.63%
CC1(C)CNC(=O)CC(C)(C)N1O	3.77%
O=c1c(Cl)c(N2CCN(c3ccc(F)cc3)CC2)cnn1C12CC3CC(CC(C3)C1)C2	2.19%
c1ccc(CCCNc2ncccn2)cc1	16.1%
CCOc1ccc(CCNC(=O)c2[nH]c(C)c(C(C)=O)c2C)cc1OCC	9.58%
Cc1cc(C)cc(NS(=O)(=O)c2ccc(NC(=S)NC(=O)c3cccs3)cc2)c1	4.56%
Cc1nn(Cc2c(F)cccc2Cl)c(=O)c2ccccc12	14%
COc1ccc2c(c1)c(CC[NH3+])c(C)n2Cc1ccccc1.[Cl-]	10.4%
COc1ccc(N=c2oc3cc(O)ccc3cc2C(=O)Nc2ccccn2)cc1OC	14.3%
O=C(Nc1cc(Cl)ccc1N1CCOCC1)c1cccnc1Cl	-1.16%
Cc1ccc(C)c(N(C(=O)Cn2nnc3ccccc32)C(C(=O)NC(C)(C)C)c2ccsc2)c1 (stereo not shown)	7.28%
Cc1ccc(N(CC(=O)Nc2ccc(S(=O)(=O)N3CCOCC3)cc2)S(C)(=O)=O)cc1C	3.47%
Cc1ccccc1CNC(=O)c1ccc(Cl)c([N+](=O)[O-])c1	12.7%
O=C(O)COc1ccccc1/C=N/Nc1ccc(S(=O)(=O)Nc2ccc(Cl)cc2)cc1[N+](=O)[O-]	16.4%
CC(N)C(=O)c1ccco1.Cl (stereo not shown)	8.75%
CC(C)OCCCNS(=O)(=O)c1ccc2ccccc2c1	-6.06%
Cc1ccc2nc3n(c(=O)c2c1)CCCCC3	5.69%
COc1ccccc1Cn1c(=O)c2ccccc2n2c(Sc3ncnc4sccc34)nnc12	-2.48%
CN1CCN(/C=N/c2c(C#N)cnn2Cc2ccccc2)CC1	0.374%
Cc1ccc(S(=O)(=O)CCC(=O)N(CCN2CCOCC2)c2nc3ccccc3s2)cc1.Cl	8.14%

Compound	hERG current change (%, negative = inhibition) at 1uM
COc1cc2nc(C3CCC3)n(NC(=O)C3CCC(OC)CC3)c(=O)c2cc1OC (stereo not shown)	-6.57%
COc1ccc(C(Sc2ccccc2)c2ccccc2)cc1OC (stereo not shown)	10.5%
CCC(C)(C)NC(=O)CN(C(=O)C(=O)Nc1ccc2c(c1)OCCO2)N1CCOCC1	3.1%
CC(C)CCNC(=O)C1CC(c2cccc(F)c2)=NO1 (stereo not shown)	8.7%
O=c1[nH]c(SCc2ccccc2Cl)nc2c1cnn2-c1ccccc1	12%
O=C(Nc1ccccc1)c1ccc(NCC2CCCO2)c(S(=O)(=O)N2CCOCC2)c1 (stereo not shown)	11.5%
Cc1onc(-c2ccccc2Cl)c1C(=O)Nc1nc2ccc(S(C)(=O)=O)cc2s1	13.8%
Cc1cc(C)n(-c2nc(NCCCN(C)C)c3c4c(sc3n2)CCCC4)n1	-7.25%
COc1cccc(NC(=O)C(Sc2nnnn2C)c2ccccc2)c1 (stereo not shown)	21.7%
CCNC(=O)C1CCCc2c1[nH]c1ccc(Cl)cc21 (stereo not shown)	14%
COc1ccc(N=C2S/C(=C\c3ccc(C)o3)C(=O)N2CC(C)C)cc1	14.5%
CCO[C@H]1OC(C(=O)NCc2ccccc2)=C[C@@H](c2ccc(C(F)(F)F)cc2)[C@@H]1CCCO	13.1%
O=C(NCC1(c2ccccc2)CCCC1)c1ccc(Br)o1	17.8%
Cn1c(=O)n(C)c2cc([N+](=O)[O-])c(N3CCN(C(=O)c4ccc(F)cc4)CC3)cc21	-6.22%
CCc1c(C)nc2c(C#N)c[nH]n2c1=O	23%
CCS(=O)(=O)c1ccc2oc(SCC(=O)NCc3ccccc3)nc2c1	-12.6%
COc1ccccc1NC(=O)CSc1ncnc2c1oc1ccccc12	10.2%
N#CC1=C(N)Oc2cc(N)ccc2C1C1CCCCC1 (stereo not shown)	7.89%
CCC/C(O)=C1\C(=O)CCCC1=NCCc1c(C)[nH]c2ccc(C)cc12	11.1%
CCOC(=O)c1ccc(-c2ccc3c(c2)CCC3)nc1C	16%
COc1ccc(NC(=O)CCc2c(C)nn(-c3ccc(N4CCOCC4)nn3)c2C)cc1	2.56%
COC(=O)C1=C(NC(=O)c2ccccc2[N+](=O)[O-])CCS1	11.1%

Compound	hERG current change (%, negative = inhibition) at 1uM
CCO[C@H]1OC(C(=O)O)=C[C@@H](C(C)(C)C)[C@@H]1CCCO	9.3%
CCOc1cc(C(c2c(C)[nH][nH]c2=O)c2c(C)[nH][nH]c2=O)cc([N+](=O)[O-])c1O	12.5%
O=C(CCS(=O)(=O)c1ccccc1)Nc1nnc(C(F)(F)F)s1	13.2%
N#C/C(=N\Nc1ccc(Br)cc1)C(=N)N1CCOCC1	-16%
CCCNc1nc(NCC)nc(OC)n1	23.8%
CN1CCN(C(=O)c2ccc(N(Cc3ccccc3Cl)S(C)(=O)=O)cc2)CC1	11%
O=C(Nc1ccc(F)c([N+](=O)[O-])c1)N1C[C@H]2C[C@@H](C1)c1cccc(=O)n1C2	13.9%
CCCCCCC(=O)N(O)C1CC(=O)N(c2ccc(C)cc2)C1=O (stereo not shown)	8.07%
N#Cc1ccc(COc2cccnc2[N+](=O)[O-])cc1	4.44%
Cc1c(C)c2ccc(OCC(=O)Nc3ccccn3)c(C)c2oc1=O	10.8%
Cc1nn(CC(=O)Nc2nnc(CC(=O)N3CCCC3)s2)c(=O)c2ccccc12	11.5%
CC(C)NCc1cc(Br)ccc1OCc1ccccc1.Cl	-9.35%
CCOc1cccc(CN2CCCC(N3CCc4ccccc4C3)C2)c1O (stereo not shown)	-7.07%
Cc1ccc(OCC(=O)Nc2cccc(S(=O)(=O)NC3=NCCCCC3)c2)cc1C	7.24%
CC(O)CNc1cnccn1 (stereo not shown)	-2.14%
CC(OC(=O)c1ccccc1NCCO)C(=O)NC1CCCCC1C (stereo not shown)	-5.1%
CCOC(=O)C1=C(CC)OC(N)=C(C#N)C1c1cccs1 (stereo not shown)	3.73%
COc1ccc(NC(=O)N2CCCC2C(=O)Nc2cccc(C)c2C)cc1 (stereo not shown)	12.4%
CCN1C(=O)N[C@@H](c2cccc(C(F)(F)F)c2)C(C(=O)OC)=C1C	17.3%
COc1ccc(NC(=O)Nc2c[nH]c(=O)[nH]c2=O)cc1	9.83%
CC[C@H](C)Cc1cn([C@@H](CCCCN)C(=O)NCCCCCCCCCCC(=O)N2CCNCC2)nn1	15.1%
CCCN(C(=O)Cn1ncc2c([nH]c3ccccc32)c1=O)c1ccccc1C	16%
